# Assay results from the supplement of paper PMC3334620.
# In all, about 33,000 sequences were measured (“E-score (-0.5 to 0.5)”: median about -0.036, highest 2% from about 0.37 on). This is one part of the list.
# Target: T1, Yer064c (UniProt P40041)
# T1 sequence: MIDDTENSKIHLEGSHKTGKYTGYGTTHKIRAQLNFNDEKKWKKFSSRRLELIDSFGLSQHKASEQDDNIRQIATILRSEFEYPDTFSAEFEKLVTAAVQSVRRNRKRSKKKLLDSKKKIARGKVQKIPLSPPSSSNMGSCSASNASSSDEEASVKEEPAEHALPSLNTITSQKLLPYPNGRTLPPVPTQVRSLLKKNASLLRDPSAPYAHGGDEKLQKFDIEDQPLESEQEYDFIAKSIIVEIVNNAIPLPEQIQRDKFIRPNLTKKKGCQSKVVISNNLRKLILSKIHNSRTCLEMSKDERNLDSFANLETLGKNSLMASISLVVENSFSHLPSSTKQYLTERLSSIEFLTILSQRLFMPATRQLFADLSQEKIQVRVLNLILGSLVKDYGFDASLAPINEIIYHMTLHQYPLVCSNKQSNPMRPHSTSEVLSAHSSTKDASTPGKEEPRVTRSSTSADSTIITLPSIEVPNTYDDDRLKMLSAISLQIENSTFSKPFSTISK
# Experiment: PBM E-score (8-mer binding enrichment) (E-score (-0.5 to 0.5)); higher = stronger / more preferred TF binding; most listed sequences are background and not binding sites
# Settings: protein concentration: 200 nM; construct: GST-full length
# Summary of the method: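 Yeast transcription factors carrying a GST tag, as full-length proteins or DNA-binding domains, were produced by PURExpress in vitro transcription/translation. About 100-200 nM protein was applied to universal all-10-mer Agilent arrays, double-stranded by primer extension on fresh or once-stripped slides. Bound protein was detected with fluorescent anti-GST, and scans were normalised with masliner. The Universal PBM Analysis Suite gave each ungapped eight-base word, pooled with its reverse complement, an E-score, a modified Wilcoxon-Mann-Whitney statistic.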
row,Sequence,PBM E-score
1,GAAGGCCA,-0.178
2,AATAACAA,-0.0961
3,CCAAGCCA,-0.0874
4,TCGTACAA,0.237
5,AAGAAAAG,0.12
6,GGGGCGTA,-0.269
7,CACTACCG,-0.0981
8,CCGGCTGA,0.165
9,ACTTTGTC,0.0135
10,CCAGCTCA,-0.197
11,ATCTTATA,0.0575
12,CCCAGATA,-0.0728
13,ATTGACCG,-0.0381
14,CAACGCGG,-0.0834
15,ACAGCCGC,-0.188
16,ACCATTCA,0.0643
17,GGTGCGAA,-0.031
18,TCGACACA,0.0595
19,ATAGAGTA,0.134
20,AAGATAGT,0.229
21,GGTTCAAC,0.115
22,ACAAGCCG,-0.166

row,Sequence,PBM E-score
1,GAACACGA,0.0999
2,GTCGGGAA,0.0416
3,CCCCCGTA,-0.195
4,CGGGCAAG,-0.131
5,CTACTGAA,0.26
6,TACTTCAA,0.126
7,CCTACCTC,-0.111
8,CCCATAGC,-0.102
9,ATGACCCA,0.294
10,CTATATTA,0.204
11,AGGGGACA,-0.224
12,ATTGTAGG,0.077
13,CCCTGGAG,-0.18
14,CCAAATTC,-0.112
15,ATACGTAC,-0.0382
16,AAGAAGTG,-0.154
17,ATTACAGA,0.172
18,CGTTCATC,-0.195
19,CATGTCTC,0.345
20,CAAGGTAC,-0.187
21,CGTCTGAG,0.0663
22,CGATAAGA,0.186

row,Sequence,PBM E-score
1,CAACGTAA,0.0311
2,ATAATTGC,-0.174
3,AGAGTTGG,-0.0749
4,GGTGGCAA,-0.121
5,CCCTGAGC,0.0214
6,AGCTTATA,-0.281
7,ACTTCACC,0.109
8,ACCATCAG,-0.0406
9,CATTGGAA,0.0795
10,AATCTCCA,-0.0439
11,CAAAGTAG,-0.00121
12,CGGGGGAC,-0.0523
13,ACTATAGG,0.119
14,ACTCGACT,0.294
15,GACTTCTA,0.28
16,AGGCAGAC,-0.0717
17,AGTGAAAT,0.143
18,CCTAAGTC,0.276
19,CCTGAACA,-0.103
20,GAGCCCAC,-0.116
21,ACGGTGGA,-0.044
22,CCTCTAAG,0.0103

row,Sequence,PBM E-score
1,CTGGCCTC,-0.291
2,GGGCGTAA,-0.277
3,AACTTCAG,-0.0277
4,AGGAGTTC,-0.135
5,CGCAAACC,-0.205
6,GTGATTGA,0.401
7,GGTTGAAA,0.00794
8,AAGTGTAC,0.0702
9,AGGCATGC,-0.067
10,CCCATGTA,0.0302
11,CGCGAGAC,0.127
12,AAGGAAGA,0.101
13,ACCTGCTG,-0.051
14,AAACCCGA,0.0219
15,GGCCTCTA,-0.16
16,TCCATGGA,0.0904
17,GAGATAGA,-0.206
18,ATCAAGTG,0.148
19,TATGCCCA,-0.243
20,AAATGCAC,-0.271
21,TAGTGTAA,-0.0832
22,CCATATTA,-0.0209

row,Sequence,PBM E-score
1,ACAGGCAT,-0.147
2,AGCCGGAG,-0.00437
3,AGGATCGA,-0.13
4,CCTGAACC,0.103
5,GTATACAC,0.111
6,CCATGTCA,0.0043
7,GGCAGCCC,-0.361
8,GAAGGCAC,-0.123
9,AGCAAGCG,-0.213
10,CTTAGTGC,-0.0473
11,GGGGACAC,-0.139
12,CCTTGGAC,-0.111
13,GTTGCGCA,-0.0205
14,TGTCCAAA,-0.0925
15,ATTCCGTC,0.00574
16,GTGTCCGA,-0.115
17,AAGACCTT,-0.109
18,GGGGGTGA,0.0959
19,AACCCACT,-0.0489
20,CACCGGGC,-0.0144
21,AGGAGGAT,-0.277
